Experimental data reported in PubChem BioAssay AID493208 (National Center for Advancing Translational Sciences (NCATS), 2011).
The whole screen tested about 44,000 compounds, of which about 340 (0.77%) were called active. About 5% were inconclusive and are not listed. Calls come from the whole dose curve; as a rule, active = well fitted inhibition curve with a large enough effect; inconclusive = small, poorly fitted or top-dose-only effect; inactive = flat fitted curve, though single readings scatter. The list shows a part of the results.

Experiment: Acumen qHTS Assay for Inhibitors of the mTORC1 Signaling Pathway in MEF (Tsc2-/-, p53-/-) Cells: Sytravon;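 note: plate controls were DMSO for no effect and rapamycin for full effect; nearly all actives have a fitted effect of over 50% in size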
Conditions: phospho-rpS6 immunofluorescence/PI, 24 h; series mostly up to 38.3 µM; activity change, negative = inhibition: at the top concentration
Summary of the method: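 Plate MEFs (Tsc2-/-, p53-/-, empty vector) in DMEM/10% FBS; after 24 h add compound, incubate 24 h at 37 degree Celsius; fix in PFA/TX-100, block, stain phospho-rpS6 and 10 uM PI; scan at 488 nm; report % positive cells.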

Activity change, negative = inhibition, inactive:
Cc1cccc(CN2CCN(CC(=O)NCCc3ccc(Cl)cc3)C2=O)c1 -2.74%
Cc1cc(C)c(NC(=O)c2oc3c(c2C)-c2[nH]ncc2CC3)c(C)c1 0.34%
Fc1ccccc1N1CCN(c2ncnc3onc(-c4ccc(Cl)cc4)c23)CC1 -2.36%
CCOC(=O)c1ccccc1NC(=O)CN1C(=O)CC(c2ccccc2)Sc2ccccc21 (stereo unspecified) -0.565%
COc1ccc(Cl)cc1NC(=O)CSc1nc2c(oc3ccccc32)c(=O)n1Cc1ccco1 2.87%
Cc1cccc(-c2nc3scc(CCNS(=O)(=O)c4ccc(F)c(C(F)(F)F)c4)n3n2)c1 0.215%
Cc1ccc(C(=O)Nc2ccc(C(=O)O)cc2)cc1S(=O)(=O)N1CCC(C)CC1 4.26%
CCCCOc1ccc(C(=O)NCc2cn3cccc(C)c3n2)cc1 -5.66%
CCCCOc1ccc(C(=O)NCCc2sc3nc(-c4ccc(OC)cc4)nn3c2C)cc1 1.29%
CCOc1cc2c(cc1OCC)C(CC(=O)O)N(C(=O)Nc1ccc(Br)c(C)c1)CC2 (stereo unspecified) 0%
O=C(Nc1ccc(N2CCN(c3ccc(F)cc3)CC2)c(C(=O)O)c1)c1cccs1 -2.51%
Cc1ccc(NC(=O)/C=C/c2ccco2)cc1F -11.7%
CCOc1ccc(N(C)C(=O)C2CCN(S(=O)(=O)c3c(C)noc3/C=C/c3ccc(C)cc3)CC2)cc1 3.12%
CCN(CC)c1nn2c(=O)c(C(=O)NCCc3ccccc3C)cnc2s1 -12.3%
COc1ccc(NC(=O)c2ccco2)cc1NC(=O)c1ccc(C#N)cc1F 5.46%
Cc1c(C(=O)Nc2ccc(F)c(Cl)c2)sc2nc3n(c(=O)c12)CCC3 0.836%
CCCCCSc1nnc2c(n1)[nH]c1c(C)cccc12 -5.03%
COCCn1c(SCC(=O)c2ccc(C)cc2)nc2cc(C(=O)NC3CCCC3)ccc2c1=O 7.49%
COc1ccccc1N1CCN(c2ncnc3c2cnn3-c2ccc(C)cc2)CC1 12.8%
FC(F)(F)c1cc(Nc2nc3ccccc3c3nncn23)ccc1Cl -16.4%
O=C(NCCc1ccccc1)C1CCN(c2nc3ccccc3nc2C(F)(F)F)CC1 -2.88%
CCCNC(=O)c1cnn(-c2ccc(C)c(C)c2)c1C1CCN(C(=O)OC(C)(C)C)CC1 -9.17%
CCCOc1ccc(C(=O)N2CCC(c3nc4ccccc4s3)CC2)cc1 -0.506%
CCc1ccc(/C=C(/C#N)c2nc(-c3ccc(C)cc3)cs2)cc1 8.23%
O=S(=O)(NCC(c1ccco1)N1CCN(c2ccccc2)CC1)c1cc(F)ccc1F (stereo unspecified) 2.72%
Cc1cc(C)cc(N2CCn3c2nc2c3c(=O)n(Cc3c(F)cccc3Cl)c(=O)n2C)c1 8.62%
O=C(Cn1c(=O)c(CNc2ccccc2)cc2cc3c(cc21)OCCO3)Nc1ccccc1Cl -0.361%
CCc1ccc2oc(-c3ccc(C)c(NC(=O)Cc4ccccc4)c3)nc2c1 1.45%
CC(C)(C)OC(=O)N1CCC(c2c(C(=O)NCCN3CCOCC3)cnn2-c2cccc(Cl)c2)CC1 5.49%
Cn1c(=O)c2c(nc(CN3CCN(c4ccccc4F)CC3)n2Cc2ccc(F)cc2)n(C)c1=O 3.57%
O=c1c(S(=O)(=O)c2ccccc2)cn(Cc2ccccc2)c2cc(N3CCCC3)c(F)cc12 0%
Cc1nn(C)c2c1c(C(F)(F)F)cc(=O)n2Cc1ccc(Br)cc1F -6.9%
Cc1cccc(NC(=O)CSc2nc3n[nH]c(C)c3c(=N)n2-c2cccc(Cl)c2)c1 -14.3%
Cc1cc(C)cc(C(=O)NCCc2sc(-c3ccc(F)cc3)nc2C)c1 3%
CCOC(=O)C1CCN(CCC(=O)Nc2ccccc2OC)CC1 6.95%
N#Cc1ccc(NC(=O)COCc2cc(-c3ccco3)on2)cc1 2.58%
COc1ccc(OC)c(C2CC(=O)Nc3c2c(=O)[nH]c2nc4ccccc4n32)c1 (stereo unspecified) 1.63%
COc1ccc(-c2c(C)c3cc(OC(=O)N4CCOCC4)ccc3oc2=O)cc1OC 3.7%
CC(CNC(=O)c1ccc(Cn2c(=O)c3cccn3c3cccnc32)cc1)c1ccccc1 (stereo unspecified) -7.76%
NC(=O)Cn1c(=O)n(CCCCCC(=O)NCc2ccc3c(c2)OCO3)c(=O)c2sccc21 6.48%
CCc1cccc(NC(=O)Cn2c(=O)n3nc(-c4cccc(F)c4)nc3c3ccccc32)c1 1.54%
COc1cccc(Cn2nnc(C(=O)NCc3ccc(Cl)cc3Cl)c2N)c1 0%
CCOc1cc2[nH]c(=O)n(CCCCC(=O)N3CCN(c4ccccc4OC)CC3)c(=O)c2cc1OCC 0.686%
COc1ccc(NC(=O)c2nnn(CC(=O)Nc3ccc(C)c(C)c3)c2N)cc1OC -18.4%
Cc1ccccc1C(=O)Nc1sc2c(c1C(=O)N1CCC(C)CC1)CCC(C)C2 (stereo unspecified) 0.0859%
Cc1ccccc1CS(=O)(=O)Cc1ccc(C(=O)NCCc2ccc(Cl)cc2)o1 -12.8%
CCOC(=O)C1CCCN(c2c(C(=O)c3ccccc3)cnc3ccc(F)cc23)C1 (stereo unspecified) 0.154%
Cc1cn2c(=O)cc(COC(=O)c3ccc(NC(=O)c4ccccc4C)cc3)nc2s1 0%
COc1ccc2c(c1)c1c(c(=O)n(-c3ccc(OC)c(OC)c3)c(=O)n1Cc1ccc(F)cc1)n2C -2.74%
Cc1ccccc1NC(=O)COc1ccc2oc3c(c2c1)CCCC3 -27.5%
CCOC(=O)N1CCC(NC(=O)c2cnn(-c3ccc(OC)cc3)c2C2CCN(C(=O)OC(C)(C)C)CC2)CC1 7.83%
Cc1ccc(Cn2c(=O)c3cccnc3n(Cc3ccc(C)cc3)c2=O)cc1 -6.74%
O=C(CN1C(=O)COc2ccc(S(=O)(=O)N3CCCCCC3)cc21)N1CCN(c2ccc(F)cc2)CC1 2.33%
COc1ccc(-c2cc3nc(C)c(CCC(=O)NCCc4ccc(Cl)cc4)c(C)n3n2)c(OC)c1 -12.5%
Cc1ccc(Cn2c(=O)n(-c3cccc(C(F)(F)F)c3)c(=O)c3c(C)c(C)sc32)c(C)c1 -13.3%
Cc1ccc(CSc2ncc(Cl)c(C(=O)Oc3ccccc3F)n2)cc1 4.18%
Cc1cn(C)c(CC(=O)Nc2cccc(C#N)c2)c1C(=O)O -3.23%
Cc1ccccc1OCCn1cc(C(=O)c2ccco2)c2ccccc21 4.3%
Cc1ccc(-c2nn3c(=O)cc(CN4CCN(C(=O)Nc5cccc(C(F)(F)F)c5)CC4)nc3s2)cc1 5.34%
Clc1ccc(-c2noc3ncnc(NC4CCCCC4)c23)cc1 -0.233%
Cc1ccc(CCNC(=O)c2cnc3c(-c4ccc(F)cc4)c(C)nn3c2C)cc1 0.517%
